Test in all cases: Primary Screen for Target Class Profiling of Small Molecule Inhibitors of Methyltransferases
In assay [1] the target is Glycine N-methyltransferase (Homo sapiens) (UniProt Q14749). Conditions: purified enzyme, MTase-Glo SAH luminescence; measured here: GNMT inhibition; at 40 µM; stronger effect = lower value. The procedure, abridged:
(§1)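 Each enzyme was reacted with SAM and its substrate, with compounds tested once at 40 uM; SAH formed was read by MTase-Glo luminescence.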

In assay [2] the target is Guanidinoacetate N-methyltransferase (Homo sapiens) (UniProt Q14353). To be noted: purified enzyme, MTase-Glo SAH luminescence; measured here: GAMT inhibition; at 40 µM; stronger effect = lower value. The essentials: as §1
In assay [3] the target is Histamine N-methyltransferase (Homo sapiens) (UniProt P50135). To be noted: purified enzyme, MTase-Glo SAH luminescence; measured here: HNMT inhibition; at 40 µM; stronger effect = lower value. The essentials:
as §1

The target in assay [4] is Nicotinamide N-methyltransferase (Homo sapiens) (UniProt P40261). Conditions: purified enzyme, MTase-Glo SAH luminescence; measured here: NNMT inhibition; at 40 µM; stronger effect = lower value. The essentials: as §1
The target of assay [5] is Phenylethanolamine N-methyltransferase (Homo sapiens) (UniProt P11086). To be noted: purified enzyme, MTase-Glo SAH luminescence; measured here: PNMT inhibition; at 40 µM; stronger effect = lower value. The procedure, abridged:
as §1

Some of the results follow. These are further read-outs of the screen, such as a control signal, another cell line or another target. No call is given for them.

The record followed here is PubChem BioAssay AID1745853 (National Center for Advancing Translational Sciences (NCATS), 2022).
On the % scale 0 is the no-effect control and ±100 the full control effect.

Regarding `CC(C)CNC(=O)c1ccc2c(=O)n(CC(C)C)c3nn(CC(=O)Nc4ccc(F)cc4)c(=O)n3c2c1`, the activity change, negative = inhibition turned out to be 8.76% in assay [1]; 0% in assay [2]; 13.1% in assay [3]; 8.81% in assay [4]; 9.06% in assay [5].

Consider `COc1ccc(N2C(=O)c3cc(C(C)C)nn3CC2(C)C(=O)NC2CCCCCC2)cc1` (stereo not given), for which the activity change, negative = inhibition turned out to be 3.99% in assay [1]; 0.684% in assay [2]; 7% in assay [3]; 10.8% in assay [4]; 3.34% in assay [5].

With `CCOC(=O)c1cc2n(n1)CC(C)(C(=O)NC1CCCCC1)N(Cc1ccccc1Cl)C2=O` (stereo not given), the activity change, negative = inhibition in assay [1] is 0.612%; in assay [2], 0%; in assay [3], -0.962%; in assay [4], -2.78%; in assay [5] it was -0.768%.

For `CC1(C(=O)NC2CCCC2)Cn2c(ccc2-c2ccco2)C(=O)N1Cc1cccs1` (stereo not given), the activity change, negative = inhibition was -13.4% in assay [1]; 2.04% in assay [2]; -5.12% in assay [3]; -4.51% in assay [4]; -5.42% in assay [5].

For the compound `CCC(=O)Nc1cccc(Oc2nc(Nc3ccc(N4CCN(C)CC4)cc3OC)ncc2Cl)c1`, the activity change, negative = inhibition in assay [1] is -5.05%; in assay [2], 9.4%; in assay [3] it was -8.51%; in assay [4] it was -6.72%; in assay [5], -2.31%.

Regarding `CCCCc1ccc(NS(=O)(=O)c2ccc(F)cc2)cc1`, the activity change, negative = inhibition was 1.97% in assay [1]; 2.73% in assay [2]; 4.83% in assay [3]; -20.5% in assay [4]; -8.6% in assay [5].

`COc1ccccc1CNC(=O)C1(C)Cn2nc(-c3ccccc3)cc2C(=O)N1c1ccc(C)cc1` (stereo not given): the activity change, negative = inhibition in assay [1] was -2.38%; in assay [2], 4.43%; in assay [3], 1.67%; in assay [4], -3.24%; in assay [5], -1.22%.

With `COc1ccc(C(=O)N(CCC(C)C)Cc2nc(C)c(C)n2Cc2ccccc2C)c(OC)c1`, the activity change, negative = inhibition in assay [1] is -2.23%; in assay [2], -2.46%; in assay [3], -0.795%; in assay [4], -81.3%; in assay [5], -11.1%.

In the case of `CC(=O)N1CCN([C@H]2CCN(C(=O)N(C)[C@H](C)c3cc(C(F)(F)F)cc(C(F)(F)F)c3)[C@@H](c3ccc(F)cc3C)C2)CC1`, the activity change, negative = inhibition is -1.22% in assay [1]; 16.5% in assay [2]; 12.8% in assay [3]; -7.84% in assay [4]; 8.3% in assay [5].

For `CC1(C(=O)NC2CCCCCC2)Cc2ccccc2C(=O)N1C1CCCC1` (stereo not given), the activity change, negative = inhibition is -6.11% in assay [1]; 3.69% in assay [2]; 3.02% in assay [3]; 3.56% in assay [4]; -3.74% in assay [5].

Consider `CC(=O)OCC1OC(O[C@H]2CC[C@]34C[C@]35CC(O)[C@]3(C)[C@@H]([C@H](C)CC/C=C(\C)C(=O)O)C(O)C[C@@]3(C)C5CC[C@H]4C2(C)C)C(O)C(O)C1OC1OCC(O)C(O)C1O` (stereo not given in full), for which the activity change, negative = inhibition is 0.603% in assay [1]; -8.23% in assay [2]; 3.33% in assay [3]; -17.5% in assay [4]; 0.564% in assay [5].

For `COc1ccc(-c2cnc3ccc(NCc4ccc(S(N)(=O)=O)cc4)nn23)cc1OC`, the activity change, negative = inhibition in assay [1] is -50.6%; in assay [2] it was -20.9%; in assay [3], -54.4%; in assay [4] it was -32.8%; in assay [5], -30.3%.

With `COc1ccc(CCNc2ncnc3c2CN(C2CCC2)C(=O)N(C)C3)cc1`, the activity change, negative = inhibition was -4.31% in assay [1]; -1.35% in assay [2]; -1.36% in assay [3]; -13.6% in assay [4]; -0.156% in assay [5].

Take `COc1ccc(CNC(=O)C2(C)Cn3cnc(C(=O)NCCc4ccco4)c3C(=O)N2C2CC2)cc1` (stereo not given): the activity change, negative = inhibition in assay [1] was -3.01%; in assay [2], 0%; in assay [3], 4.01%; in assay [4], -1.41%; in assay [5] it was 0.326%.

Consider `CCN1CCN(C(=O)c2cc3n(n2)CC(C)(C(=O)NC2CCCCC2)N(C)C3=O)CC1` (stereo not given), for which the activity change, negative = inhibition in assay [1] is 2.32%; in assay [2] it was 1.12%; in assay [3], 8.32%; in assay [4], 3.4%; in assay [5], 2.64%.

As to `Cc1cc(F)ccc1NS(=O)(=O)c1ccc2c(c1)n(C)c(=O)n2C`, the activity change, negative = inhibition in assay [1] is 12.1%; in assay [2] it was 0%; in assay [3] it was 10.2%; in assay [4] it was -0.617%; in assay [5], 2.49%.

For `COc1ccc(CC(=O)N2CCc3nc(-c4cccnc4)[nH]c3C2)cc1`, the activity change, negative = inhibition was -7.91% in assay [1]; -5.47% in assay [2]; -11.3% in assay [3]; -12.9% in assay [4]; -11.2% in assay [5].

Turning to `CCOc1ccc(CCN2C(=O)c3cc4ccccc4n3CC2(C)C(=O)NCc2ccccc2)cc1` (stereo not given), the activity change, negative = inhibition worked out at 5.01% in assay [1]; 0% in assay [2]; 7.94% in assay [3]; 11.9% in assay [4]; 2.18% in assay [5].

As for `Cc1ccc(NS(=O)(=O)c2ccc3[nH]c(=O)[nH]c3c2)cc1Cl`, the activity change, negative = inhibition is 9.03% in assay [1]; 1.25% in assay [2]; 9.08% in assay [3]; -3.62% in assay [4]; -22.3% in assay [5].

Consider `C[C@@H]1CC[C@]2(C(=O)O[C@@H]3O[C@H](CO)[C@@H](O)[C@H](O)[C@H]3O)CC[C@]3(C)C(=CCC4[C@@]5(C)C[C@@H](O)[C@H](O)C(C)(C)C5CC[C@]43C)C2[C@]1(C)O` (stereo not given in full), for which the activity change, negative = inhibition in assay [1] is 0.222%; in assay [2], 7.42%; in assay [3], 12.8%; in assay [4], -4%; in assay [5], 8.24%.

Take `C[C@@]12CO[C@@H](CNS(C)(=O)=O)O[C@@H]1CC[C@]1(C)[C@@H]2CC[C@@H](O)[C@H]1CC(=O)NCc1ccco1`: the activity change, negative = inhibition in assay [1] was -4.91%; in assay [2], -0.605%; in assay [3], 1.42%; in assay [4] it was -6.57%; in assay [5], 0.974%.

For `CN1C(=O)c2cc(C(=O)N3CCN(c4ccccc4F)CC3)nn2CC1(C)C(=O)NC1CCCCC1` (stereo not given), the activity change, negative = inhibition in assay [1] amounted to 4.43%; in assay [2], 3.39%; in assay [3] it was 9.69%; in assay [4] it was 6.46%; in assay [5], 1.76%.

For `O=c1c2ccccc2n2c(-c3ccc(Cl)cc3)nnc2n1CCc1ccccc1`, the activity change, negative = inhibition in assay [1] is -8.76%; in assay [2] it was 2.43%; in assay [3], -5.02%; in assay [4], -4.82%; in assay [5] it was -8.74%.

Consider `Cc1ccccc1N(C)C1CN(Cc2ccc(C#N)cc2)C1`, for which the activity change, negative = inhibition in assay [1] was -6.28%; in assay [2], -0.02%; in assay [3], -13.6%; in assay [4] it was -18.1%; in assay [5], -10.7%.

Turning to `O=C(N[C@H](c1ccccn1)C1CC(O)C1)c1ccc2c(c1)ncn2CCO` (stereo not given in full), the activity change, negative = inhibition in assay [1] was -1.74%; in assay [2] it was -7.25%; in assay [3], -4.67%; in assay [4], -3.53%; in assay [5] it was 304%.

For the compound `CCc1cc2c(cc3n2CC(C)(C(=O)NC2CCC(C)CC2)N(c2cccc(Cl)c2C)C3=O)s1` (stereo not given), the activity change, negative = inhibition is 2.93% in assay [1]; 4.43% in assay [2]; -0.489% in assay [3]; 4.58% in assay [4]; -0.429% in assay [5].

Turning to `O=C(NCC(F)F)C1CCCN1C(=O)c1cccc(-c2ccccn2)c1` (stereo not given), the activity change, negative = inhibition in assay [1] is -2.49%; in assay [2], -3.87%; in assay [3], -0.865%; in assay [4], -3.21%; in assay [5] it was 2.86%.

As for `C=CCOc1cccc(-c2nc(C(=O)NCc3cccc(F)c3)cs2)c1`, the activity change, negative = inhibition in assay [1] was -2.67%; in assay [2], 0.907%; in assay [3] it was 0.968%; in assay [4], -3.05%; in assay [5], -2.46%.

For the compound `CCOc1ccc(NC(=O)c2cc3n(n2)CC(C)(C(=O)NC2CCCC2)N(CC)C3=O)cc1` (stereo not given), the activity change, negative = inhibition in assay [1] was 1.34%; in assay [2], 0.587%; in assay [3], -6.45%; in assay [4] it was 5.06%; in assay [5] it was 1.23%.
